# This is one part of the list. At the low end of the ranking the order means little.
# Molecular target: MAX:MAX (p21) (UniProt P61244-2)
# Experiment: protein-binding microarray (anti-MAX antibody)
# Conditions: PBM: 15 mM Tris-HCl pH 7.5, 100 mM KCl, 0.075% NP40, 7.5 mM beta-mercaptoethanol, 375 ng/ul BSA, 8 ng/ul poly(dA-dT):(dA-dT), 550 ng complex, 60 min, room …; high values mean tight binding; double strand, one strand shown; sequences stand for … in CCGGC…TTAATAGCTAAGATTACTATATCGACG
row,Sequence,binding signal (log2 normalized fluorescence)
1,TGACACTTGGTA,0.397
2,TGAACTATAGTA,-0.954
3,AATTCGGAACAG,0.061
4,TGACAAGAGGTA,0.179
5,TGAGTCTTGGTA,-0.883
6,TGAAGGAATGTA,-0.174
7,TGAACGAGGGTA,0.249
8,TGACACGTGTAC,3.15
9,TGACGTGAGGTA,0.923
10,TGATTTAGTGTA,-1.06
11,TGACGGTACGTA,-0.183
12,TGATGCCCAGTA,-0.387
13,TGACTGGCGGTA,-0.264
14,TGAACATAGGTA,-0.157
15,TGACACGTTGTC,3.12
16,TGATAGTCTGTA,-0.885
17,TGACCGGTAGTA,-0.573
18,TGAAAGGTAGTA,-0.646
19,TGATAATAGGTA,-0.994
20,TGAAGATTAGTA,-0.814
21,TGAGACACTGTA,-0.484
22,TGAGAATAAGTA,-1.12
23,TGACAATCAGTA,-0.489
24,TAATATGGGGTT,0.37
25,TGATAGGCAGTA,-0.788

row,Sequence,binding signal (log2 normalized fluorescence)
1,TGATTCACTGTA,-0.711
2,TGACTCCTCGTA,-0.527
3,TGACGCGTAGTA,0.217
4,TGACCTAGTGTA,0.00558
5,TGAGAATTTGTA,-1.31
6,TGAAAAGCGGTA,-0.575
7,TTACAGGTGGTA,2.91
8,TGATGACTAGTA,-0.165
9,TGAAGAGCCGTA,-0.64
10,TGAGGGGTAGTA,0.305
11,CGACTCGGGGTT,-0.0499
12,TGAAGGTGCGTA,0.285
13,TGATCCACTGTA,-0.566
14,TGAATCAAGGTA,-0.372
15,TGACACAGCGTA,-0.0688
16,TGAGATTGTGTA,-0.776
17,TGATTGAGAGTA,-1.33
18,TGAGAGCGTGTA,2.11
19,TGAACTGGAGTA,-0.668
20,TGGCAGGTGGTA,2.58
21,TGACTACAAGTA,-0.652
22,TGACCTTTTGTA,-0.752
23,TGATGGAAGGTA,-0.0824
24,TGAACGTTAGTA,-0.263
25,TGATGCAGTGTA,-0.158

row,Sequence,binding signal (log2 normalized fluorescence)
1,TGATGTTCGGTA,0.0714
2,TGATAACTCGTA,-0.352
3,TGATCTCAGGTA,-1.01
4,TGACTCTATGTA,-0.74
5,TGAGCGGACGTA,-0.884
6,TGAGTACGAGTA,-0.584
7,TGACTTTCGGTA,-0.88
8,TGACACGACCTA,1.2
9,TGAGGGGTCGTA,0.336
10,GGACACTTGGTA,0.579
11,TGACGACTTGTA,-0.501
12,TGTCAGGTGGTG,3.01
13,TGAAACTCCGTA,-0.698
14,TGACTACCGGTA,-0.739
15,TGAGTTGTCGTA,-0.797
16,TGATAGGCCGTA,-1.4
17,TGATCCAGAGTA,-0.902
18,TGATCGTACGTA,-0.438
19,TGAAGCTGAGTA,-0.785
20,TGACTGTGAGTA,-0.0273
21,TGACGTTTTGTA,-0.833
22,TGAGATAGGGTA,-1.23
23,TGACGCATCGTA,0.0462
24,TGATGCGTGGTA,2.25
25,TGAACTGTCGTA,-0.418

row,Sequence,binding signal (log2 normalized fluorescence)
1,TGAAGCACCGTA,0.302
2,TTACACGGGGTC,3.21
3,TGAGGAGCGGTA,-0.671
4,TGATTCACCGTA,-0.472
5,TGAATCTCTGTA,-1.15
6,TGATAGCTAGTA,-1.37
7,TGATGTATCGTA,-0.203
8,TGACATGTCGTA,1.53
9,TGACGGCAGGTA,-0.159
10,TGACCATGAGTA,2
11,CATCACGTGGTA,3.11
12,TGAATTGTTGTA,-0.515
13,TGACTGGGTGTA,-0.0734
14,TGAGACACCGTA,-0.194
15,TGACACGGCATA,0.992
16,GACCACGTGGTA,3.3
17,TGATAAGCTGTA,-1.04
18,TGAGCGTTGGTA,-0.314
19,TGAACATTGGTA,-0.132
20,TGAAGACTCGTA,-0.55
21,TGAAGTCGTGTA,0.233
22,TGAAGCTAAGTA,-1.02
23,TGGCCCGTTGTA,-0.569
24,TGAATAACGGTA,-0.806
25,TGACTTCCAGTA,-0.85

row,Sequence,binding signal (log2 normalized fluorescence)
1,TCACCGGTGGTA,1.44
2,TGAAGTTGCGTA,-0.654
3,TGAATCGACGTA,-0.856
4,TGAACAGTTGTA,-0.643
5,TGATGTCAAGTA,-0.151
6,TGACACGTGTGA,3.24
7,TGACCTTTAGTA,-0.715
8,TGAACTTAAGTA,-0.648
9,TGATTTCCGGTA,-1.18
10,TGATCAACTGTA,-0.143
11,TGACGAATCGTA,-0.835
12,TGACACGGGGTA,2.49
13,TGAGGTAGCGTA,-0.443
14,TGATCTGGTGTA,-0.555
15,TGATGTCGGGTA,-0.409
16,TGACTTAGGGTA,-0.711
17,TGACAGTTCGTA,-0.332
18,TGAACTCACGTA,0.298
19,TGACACCGTGTA,1.72
20,TGAGACGGAGTA,-1.12
21,TGAAGCGGTGTA,-0.554
22,TGACGCGCCGTA,0.209
23,TGAGCATGCGTA,2.82
24,TGAATGCCTGTA,0.35
25,TGAGAAGCGGTA,-0.9

row,Sequence,binding signal (log2 normalized fluorescence)
1,TGACTAGGGGTA,-0.293
2,TGAGAGAGTGTA,-0.651
3,AGACATGTGGTG,3.1
4,TGATACAACGTA,-0.446
5,TGATCAAAGGTA,-0.504
6,TGACATGGGGTA,2.42
7,TGATTCCTTGTA,-0.982
8,TGATACCCTGTA,-0.391
9,TGACACATGGTT,3.37
10,GGCCACTTGGTA,0.572
11,TGAATTTCCGTA,-1.04
12,CGACACGTGGTA,3.12
13,TGACACGCGAGA,2.54
14,TAACACGTGATA,3.18
15,CAACACGTGGTA,3.22
16,TGATCGGGGGTA,1.41
17,TGACACGTACCA,1.34
18,TGAGCAGGGGTA,0.451
19,TGAGTGCCAGTA,-0.284
20,TGACGTGGGGTA,1.38
21,TAATACGTGGTG,1.56
22,TGAAAATAAGTA,-0.811
23,TGACGTCGAGTA,-0.44
24,TGAGAGACTGTA,-0.798
25,TGAGACTCAGTA,-0.598

row,Sequence,binding signal (log2 normalized fluorescence)
1,TGAGAATATGTA,-0.726
2,TGAAACTAGGTA,-0.807
3,TGAACTCGCGTA,0.166
4,TGAAAGTAGGTA,-0.908
5,TGATTCTCAGTA,-0.684
6,TGAGGTAGTGTA,-0.71
7,TGATAAGTAGTA,-1.11
8,TGAGTACCCGTA,-0.792
9,TGACCGGTTGTA,-0.559
10,TGATCATGAGTA,1.67
11,TGATTGAGGGTA,-0.965
12,TGATGAGCCGTA,-0.923
13,TGAGTACGCGTA,-0.441
14,TGAGCGTCAGTA,-0.442
15,TGAAGATATGTA,-0.698
16,TGGCCCGTGGTA,1.64
17,TGATGGTGGGTA,0.202
18,TGAGGCTAGGTA,-1.16
19,TGAAACGGGGTT,0.434
20,TGAGCAATTGTA,-0.926
21,TGACAGGTGGTA,2.69
22,TGAATTGCAGTA,-0.423
23,TGATAATTGGTA,-1.09
24,TGACATACAGTA,0.345
25,TGATAGAGGGTA,-0.944

# Reference: publication PMC5515408
